According to patent US20150329864A1, “DESIGN OF OLIGONUCLEOTIDE ANALOGS AS THERAPEUTIC AGENTS” (SPRING BANK PHARMACEUTICALS, INC., priority 2010, published 2015):

What was measured:
Type in all cases: cell-based
Conditions in all cases: Hepatitis B virus
HBV-3TC-R1 L180M = tested on: HBV-3TC-R1 L180M
Method: (§1) Antiviral analysis. For the antiviral analyses, confluent cultures of 2.2.1.5 cells were maintained on 96-well flat-bottomed tissue culture plates in RPMI1640 medium with 2% fetal bovine serum. Cultures (6 per each test concentration on two replicate plates) were treated with 9 consecutive daily doses of the test compounds. Medium was changed daily with fresh test compounds. HBV nucleic acid and protein levels were measured 24 hours after the last treatment. Extracellular (virion) HBV DNA levels were assessed by quantitative blot hybridization. Intracellular HBV DNA levels were measured by quantitative Southern blot hybridization.
(§2) The uptake of neutral red dye was used to determine the relative level of toxicity 24 hours following the last treatment. The absorbance of internalized dye at […] (A510) was used for the semi-quantitative analysis. Values are presented as a percentage of the average A510 values (±standard deviations) in 9 separate cultures of untreated cells maintained on the 96-well plates seeded at the same time with the identical pool of stock cells used for the antiviral analyses and maintained in an identical manner. A total of 3 cultures were treated with each concentration of the test compound.

HBV-3TC-R3 M204I = tested on: HBV-3TC-R3 M204I
Method: as §1, §2

HBV-3TC-R2 M204V = tested on: HBV-3TC-R2 M204V
Method: as §1, §2

HBV-ADV-R1 N236T = tested on: HBV-ADV-R1 N236T
Method: as §1, §2

| Compound | EC50 (HBV-3TC-R1 L180M) | EC90 (HBV-3TC-R1 L180M) | EC50 (HBV-3TC-R3 M204I) | EC90 (HBV-3TC-R3 M204I) | EC50 (HBV-3TC-R2 M204V) | EC90 (HBV-3TC-R2 M204V) | EC50 (HBV-ADV-R1 N236T) | EC90 (HBV-ADV-R1 N236T) |
| --- | --- | --- | --- | --- | --- | --- | --- | --- |
| CC(C)(C)C(=O)OCOP(=O)(COCCn1cnc2c(N)ncnc21)OCOC(=O)C(C)(C)C [ADV, adefovir dipivoxil] | 2.1 µM | 8.2 µM | 2 µM | 8 µM | 1.8 µM | 7.2 µM | 7.5 µM | 29 µM |
| Nc1ccn([C@@H]2CS[C@H](CO)O2)c(=O)n1 [Compound 3TC, Lamivudine] | 5.3 µM | 20 µM | > 100 µM | > 100 µM | > 100 µM | > 100 µM | 0.2 µM | 0.8 µM |
| CO[C@H]1C(OP(=O)(OC[C@H]2O[C@@H](n3cnc4c(N)ncnc43)CC2O)SCOC(=O)OC(C)C)[C@@H](CO)O[C@H]1n1ccc(=O)[nH]c1=O (stereo partly drawn) [Compound 6k] | 2.1 µM | 8.6 µM | 3 µM | 9.2 µM | 2.4 µM | 8.3 µM | 2.8 µM | 8.7 µM |
